Data from the supplement of paper PMC11876631.
± gives the standard deviation of the averaged measurements. Laboratory Escherichia coli strains with one amino-acid change in an essential protein, pooled on minimal glucose agar with carbenicillin or gentamicin at twice the control MIC (plus kanamycin and chloramphenicol for the plasmids), 48 h. Fold change of barcode share against drug-free plates; higher = less susceptible. Active = above 20 in both replicates (the paper's putatively resistant). '<' = one read or none on drug, '>' = one read or none on a drug-free plate. Shares are relative, so most strains fall below 1 when a few take over. Listed are strains with at least 15 reads on both drug-free plates, and hits; most hits rest on fewer reference reads. Replicate rank correlation about 0.5. Edits are read from barcodes.

Target: Escherichia coli (laboratory strain)
Assay: barcode share on antibiotic plates over drug-free plates; higher = less susceptible
Protocol: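 A pool of E. coli strains, each edited to carry one amino-acid change in an essential protein, was grown for 48 h on minimal glucose agar with or without antibiotic; strain barcodes were sequenced; mean of two replicates.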

[1] = antibiotic: carbenicillin, 2× MIC (3.1 µg/mL)
[2] = antibiotic: gentamicin, 2× MIC (MIC 0.45 µg/mL)

Protein	fold change of barcode share [1]	fold change of barcode share [2]
pabB L131Q (protein) MKTLSPAVITLLWRQDAAEFYFSRLSHLPWAMLLHSGYADHPYSRFDIVVAEPICTLTTFGKETVVSESEKRTTTTDDPLQVLQQVLDRADIRPTHNEDLPFQGGALGLFGYDLGRRFESLPEIAEQDIVQPDMAVGIYDWALIVDHQRHTVSLLSHNDVNARRAWLESQQFSPQEDFTLTSDWQSNMTREQYGEKFRQVQEYLHSGDCYQVNLAQRFHATYSGDEWQAFLQLNQANRAPFSAFLRLEQGAILSLSPERFILCDNSEIQTRPIKGTLPRLPDPQEDSKQAVKLANSAKDRAENLMIVDLMRNDIGRVAVAGSVKVPELFVVEPFPAVHHLVSTITAQLPEQLHASDLLRAAFPGGSITGAPKVRAMEIIDELEPQRRNAWCGSIGYLSFCGNMDTSITIRTLTAINGQIFCSAGGGIVADSQEEAEYQETFDKVNRILKQLEK	0.397 ± 0.039	–
pabB W141Q (protein) MKTLSPAVITLLWRQDAAEFYFSRLSHLPWAMLLHSGYADHPYSRFDIVVAEPICTLTTFGKETVVSESEKRTTTTDDPLQVLQQVLDRADIRPTHNEDLPFQGGALGLFGYDLGRRFESLPEIAEQDIVLPDMAVGIYDQALIVDHQRHTVSLLSHNDVNARRAWLESQQFSPQEDFTLTSDWQSNMTREQYGEKFRQVQEYLHSGDCYQVNLAQRFHATYSGDEWQAFLQLNQANRAPFSAFLRLEQGAILSLSPERFILCDNSEIQTRPIKGTLPRLPDPQEDSKQAVKLANSAKDRAENLMIVDLMRNDIGRVAVAGSVKVPELFVVEPFPAVHHLVSTITAQLPEQLHASDLLRAAFPGGSITGAPKVRAMEIIDELEPQRRNAWCGSIGYLSFCGNMDTSITIRTLTAINGQIFCSAGGGIVADSQEEAEYQETFDKVNRILKQLEK	1.49 ± 0.16	0.0228 ± 0.022
pabB W141D (protein) MKTLSPAVITLLWRQDAAEFYFSRLSHLPWAMLLHSGYADHPYSRFDIVVAEPICTLTTFGKETVVSESEKRTTTTDDPLQVLQQVLDRADIRPTHNEDLPFQGGALGLFGYDLGRRFESLPEIAEQDIVLPDMAVGIYDDALIVDHQRHTVSLLSHNDVNARRAWLESQQFSPQEDFTLTSDWQSNMTREQYGEKFRQVQEYLHSGDCYQVNLAQRFHATYSGDEWQAFLQLNQANRAPFSAFLRLEQGAILSLSPERFILCDNSEIQTRPIKGTLPRLPDPQEDSKQAVKLANSAKDRAENLMIVDLMRNDIGRVAVAGSVKVPELFVVEPFPAVHHLVSTITAQLPEQLHASDLLRAAFPGGSITGAPKVRAMEIIDELEPQRRNAWCGSIGYLSFCGNMDTSITIRTLTAINGQIFCSAGGGIVADSQEEAEYQETFDKVNRILKQLEK	1.34 ± 0.83	0.0213 ± 0.0099
pabB W141A (protein) MKTLSPAVITLLWRQDAAEFYFSRLSHLPWAMLLHSGYADHPYSRFDIVVAEPICTLTTFGKETVVSESEKRTTTTDDPLQVLQQVLDRADIRPTHNEDLPFQGGALGLFGYDLGRRFESLPEIAEQDIVLPDMAVGIYDAALIVDHQRHTVSLLSHNDVNARRAWLESQQFSPQEDFTLTSDWQSNMTREQYGEKFRQVQEYLHSGDCYQVNLAQRFHATYSGDEWQAFLQLNQANRAPFSAFLRLEQGAILSLSPERFILCDNSEIQTRPIKGTLPRLPDPQEDSKQAVKLANSAKDRAENLMIVDLMRNDIGRVAVAGSVKVPELFVVEPFPAVHHLVSTITAQLPEQLHASDLLRAAFPGGSITGAPKVRAMEIIDELEPQRRNAWCGSIGYLSFCGNMDTSITIRTLTAINGQIFCSAGGGIVADSQEEAEYQETFDKVNRILKQLEK	2.108 ± 0.012	0.011 ± 0.0039
pabB L131P (protein) MKTLSPAVITLLWRQDAAEFYFSRLSHLPWAMLLHSGYADHPYSRFDIVVAEPICTLTTFGKETVVSESEKRTTTTDDPLQVLQQVLDRADIRPTHNEDLPFQGGALGLFGYDLGRRFESLPEIAEQDIVPPDMAVGIYDWALIVDHQRHTVSLLSHNDVNARRAWLESQQFSPQEDFTLTSDWQSNMTREQYGEKFRQVQEYLHSGDCYQVNLAQRFHATYSGDEWQAFLQLNQANRAPFSAFLRLEQGAILSLSPERFILCDNSEIQTRPIKGTLPRLPDPQEDSKQAVKLANSAKDRAENLMIVDLMRNDIGRVAVAGSVKVPELFVVEPFPAVHHLVSTITAQLPEQLHASDLLRAAFPGGSITGAPKVRAMEIIDELEPQRRNAWCGSIGYLSFCGNMDTSITIRTLTAINGQIFCSAGGGIVADSQEEAEYQETFDKVNRILKQLEK	0.436 ± 0.074	–
panB L42A (protein) MKPTTISLLQKYKQEKKRFATITAYDYSFAKLFADEGLNVMAVGDSLGMTVQGHDSTLPVTVADIAYHTAAVRRGAPNCLLLADLPFMAYATPEQAFENAATVMRAGANMVKIEGGEWLVETVQMLTERAVPVCGHLGLTPQSVNIFGGYKVQGRGDEAGDQLLSDALALEAAGAQLLVLECVPVELAKRITEALAIPVIGIGAGNVTDGQILVMHDAFGITGGHIPKFAKNFLAETGDIRAAVRQYMAEVESGVYPGEEHSFH	3.082 ± 0.01	0.119 ± 0.074
panB M41Q (protein) MKPTTISLLQKYKQEKKRFATITAYDYSFAKLFADEGLNVQLVGDSLGMTVQGHDSTLPVTVADIAYHTAAVRRGAPNCLLLADLPFMAYATPEQAFENAATVMRAGANMVKIEGGEWLVETVQMLTERAVPVCGHLGLTPQSVNIFGGYKVQGRGDEAGDQLLSDALALEAAGAQLLVLECVPVELAKRITEALAIPVIGIGAGNVTDGQILVMHDAFGITGGHIPKFAKNFLAETGDIRAAVRQYMAEVESGVYPGEEHSFH	0.494 ± 0.099	0.00795 ± 0.0015
panB L82A (protein) MKPTTISLLQKYKQEKKRFATITAYDYSFAKLFADEGLNVMLVGDSLGMTVQGHDSTLPVTVADIAYHTAAVRRGAPNCLLAADLPFMAYATPEQAFENAATVMRAGANMVKIEGGEWLVETVQMLTERAVPVCGHLGLTPQSVNIFGGYKVQGRGDEAGDQLLSDALALEAAGAQLLVLECVPVELAKRITEALAIPVIGIGAGNVTDGQILVMHDAFGITGGHIPKFAKNFLAETGDIRAAVRQYMAEVESGVYPGEEHSFH	2.75 ± 0.14	0.0102 ± 0.0034
panB L42W (protein) MKPTTISLLQKYKQEKKRFATITAYDYSFAKLFADEGLNVMWVGDSLGMTVQGHDSTLPVTVADIAYHTAAVRRGAPNCLLLADLPFMAYATPEQAFENAATVMRAGANMVKIEGGEWLVETVQMLTERAVPVCGHLGLTPQSVNIFGGYKVQGRGDEAGDQLLSDALALEAAGAQLLVLECVPVELAKRITEALAIPVIGIGAGNVTDGQILVMHDAFGITGGHIPKFAKNFLAETGDIRAAVRQYMAEVESGVYPGEEHSFH	9.27 ± 2.1	–
panB M41A (protein) MKPTTISLLQKYKQEKKRFATITAYDYSFAKLFADEGLNVALVGDSLGMTVQGHDSTLPVTVADIAYHTAAVRRGAPNCLLLADLPFMAYATPEQAFENAATVMRAGANMVKIEGGEWLVETVQMLTERAVPVCGHLGLTPQSVNIFGGYKVQGRGDEAGDQLLSDALALEAAGAQLLVLECVPVELAKRITEALAIPVIGIGAGNVTDGQILVMHDAFGITGGHIPKFAKNFLAETGDIRAAVRQYMAEVESGVYPGEEHSFH	7.83 ± 0.39	–
panB V40Q (protein) MKPTTISLLQKYKQEKKRFATITAYDYSFAKLFADEGLNQMLVGDSLGMTVQGHDSTLPVTVADIAYHTAAVRRGAPNCLLLADLPFMAYATPEQAFENAATVMRAGANMVKIEGGEWLVETVQMLTERAVPVCGHLGLTPQSVNIFGGYKVQGRGDEAGDQLLSDALALEAAGAQLLVLECVPVELAKRITEALAIPVIGIGAGNVTDGQILVMHDAFGITGGHIPKFAKNFLAETGDIRAAVRQYMAEVESGVYPGEEHSFH	10.1 ± 4.1	–
panB L42Q (protein) MKPTTISLLQKYKQEKKRFATITAYDYSFAKLFADEGLNVMQVGDSLGMTVQGHDSTLPVTVADIAYHTAAVRRGAPNCLLLADLPFMAYATPEQAFENAATVMRAGANMVKIEGGEWLVETVQMLTERAVPVCGHLGLTPQSVNIFGGYKVQGRGDEAGDQLLSDALALEAAGAQLLVLECVPVELAKRITEALAIPVIGIGAGNVTDGQILVMHDAFGITGGHIPKFAKNFLAETGDIRAAVRQYMAEVESGVYPGEEHSFH	7.86 ± 0.64	–
panB M215P (protein) MKPTTISLLQKYKQEKKRFATITAYDYSFAKLFADEGLNVMLVGDSLGMTVQGHDSTLPVTVADIAYHTAAVRRGAPNCLLLADLPFMAYATPEQAFENAATVMRAGANMVKIEGGEWLVETVQMLTERAVPVCGHLGLTPQSVNIFGGYKVQGRGDEAGDQLLSDALALEAAGAQLLVLECVPVELAKRITEALAIPVIGIGAGNVTDGQILVPHDAFGITGGHIPKFAKNFLAETGDIRAAVRQYMAEVESGVYPGEEHSFH	0.255 ± 0.08	–
panB V40A (protein) MKPTTISLLQKYKQEKKRFATITAYDYSFAKLFADEGLNAMLVGDSLGMTVQGHDSTLPVTVADIAYHTAAVRRGAPNCLLLADLPFMAYATPEQAFENAATVMRAGANMVKIEGGEWLVETVQMLTERAVPVCGHLGLTPQSVNIFGGYKVQGRGDEAGDQLLSDALALEAAGAQLLVLECVPVELAKRITEALAIPVIGIGAGNVTDGQILVMHDAFGITGGHIPKFAKNFLAETGDIRAAVRQYMAEVESGVYPGEEHSFH	0.564 ± 0.028	0.00959 ± 0.0061
